Laboratory results from article PMC11002309 (2024).

Key:
[1] = biological target: T1, PBRM1-BD4 WT (fourth bromodomain of polybromo-1, aa 496–637) (human, UniProt Q86U86-5 496-637); assay: AlphaScreen, WT run alongside M586I
T1 chain: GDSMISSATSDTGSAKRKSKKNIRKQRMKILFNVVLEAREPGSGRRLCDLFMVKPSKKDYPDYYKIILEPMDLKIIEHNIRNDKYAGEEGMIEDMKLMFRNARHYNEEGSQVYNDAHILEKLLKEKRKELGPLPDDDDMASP

[2] = biological target: T1, PBRM1-BD4 WT (fourth bromodomain of …); assay: AlphaScreen, WT run alongside P556S
[3] = biological target: T1, PBRM1-BD4 WT (fourth bromodomain of …); assay: AlphaScreen, WT run alongside R576L

EC50 [1]: 62 nM
EC50 [2]: 67 nM
EC50 [3]: 94 nM
B1: biotinylated histone H3K14ac(1–20) peptide (peptide)
peptide: not shown
modifications: acetyl-lysine at K14; biotin on the added C-terminal lysine; C-terminal amide (CONH2)
